Results from PubChem BioAssay AID1479 (National Center for Advancing Translational Sciences (NCATS), 2009).
Screen size: about 280,000 compounds; about 820 (0.29%) were called active. This list was built around the results that the source calls inconclusive (neither active nor inactive); the mix of calls is not that of the screen. Calls come from the whole dose curve; as a rule, active = well fitted curve in either direction with a large enough effect; inconclusive = small, poorly fitted or top-dose-only effect; inactive = flat fitted curve, though single readings scatter. No potency is given beside an inconclusive call; the fits are too rough.

Test: Total Fluorescence Counterscreen for Inhibitors of the Interaction of Thyroid Hormone Receptor and Steroid Receptor Coregulator 2
Conditions: TRb/SRC2 Texas Red total fluorescence interference; series mostly up to 106 µM; fluorescence change, negative = quenching: at the top concentration
In short: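 Flags fluorescent or light-absorbing compounds by total fluorescence, S + 2P, at 555 nm excitation and 632 nm emission. Mixture: 20 nM Texas Red SRC2 peptide, 0.6 uM human TRb LBD, 1 uM T3, 5% DMSO; compound exposure 5 h at ambient temperature.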
% is set by controls: 0 for no effect and ±100 for the full control effect; potency is the fitted concentration of half-maximal effect; tags give direction and shape of the fitted curve or compound fluorescence and quenching.

| Structure (SMILES) | Potency | fluorescence change, negative = quenching |
| --- | --- | --- |
| N#Cc1ccc(-c2nc3ccccc3nc2-c2ccccc2)cc1C#N | inconclusive [falling, partial curve, poor fit] |  |
| Cc1ccc2nc(-c3ccc(NC(=O)COc4ccc(Br)cc4Br)cc3)sc2c1 | active: 0.316 µM [quencher] |  |
| Cc1ccc2oc(C(=O)Nc3ccc(S(=O)(=O)Nc4nccc(C)n4)cc3)cc(=O)c2c1 | inconclusive [falling, full curve, poor fit] |  |
| O=C(CCNS(=O)(=O)c1ccc2c(c1)CCN2C(=O)C1CC1)N1CCN(c2cccc(Cl)c2)CC1 | inconclusive [falling, full curve, poor fit] |  |
| Cc1cccc(N2CCN(C(=O)Cn3c(-c4cccs4)cc4ccccc43)CC2)c1C | inconclusive [quencher, full curve] |  |
| CCN1CCN(c2ncc3c(n2)CCN(Cc2ccccc2C)C3)CC1 |  | inactive: 2.1% |
| COc1ccc2c(C)c(CC(=O)NCc3ccccc3Cl)c(=O)oc2c1OC | inconclusive [falling, full curve, poor fit] |  |
| O=C(Nc1cc(SCC(O)CO)cc([N+](=O)[O-])c1)c1ccc(-n2cnnn2)cc1 (stereo not drawn) | inconclusive [quencher, partial curve] |  |
| COc1ccc(CCNC(=O)CN(c2ccccc2)S(=O)(=O)N(C)C)cc1OC | inconclusive [falling, full curve, poor fit] |  |
| O=C(CSc1nnc(-c2ccccc2)o1)c1ccc2c(c1)OCCO2 |  | inactive: 0.661% |
| Cc1ccc(C)c(Cn2c(=O)n(-c3ccccc3)c(=O)c3c4c(sc32)CCCC4)c1 | inconclusive [falling, full curve, poor fit] |  |
| COc1cc(-n2c(=O)c3ccccc3n(Cc3cccc(Cl)c3)c2=O)cc(OC)c1OC | inconclusive [falling, full curve, poor fit] |  |
| CCOc1cccc(CNCCCSc2nnnn2C)c1 | inconclusive [falling, partial curve, poor fit] |  |
| Cc1nc(-c2ccc(F)cc2)sc1CCNC(=O)c1cccs1 | inconclusive |  |
| Cc1cc(C)c(-c2c(O)c3cccc4c3n(c2=O)CCC4)c(C)c1 |  | inactive: -2.31% |
| COc1ccc(NC(=O)CSc2nc3ccccc3nc2N2CCCCC2)cc1 | inconclusive [falling, full curve, poor fit] |  |
| COC(=O)c1c(NC(=O)COC(=O)Cn2cnc3ccccc32)sc2c1CCCC2 | inconclusive [falling, partial curve, poor fit] |  |
| CCOC(=O)c1sc2nc(C)nc(NCCc3ccccn3)c2c1C |  | inactive: -0.416% |
| CCOC(=O)c1cnc2c(C)cc(C)cc2c1Nc1ccc(S(=O)(=O)Nc2ncccn2)cc1 | active: 35.5 µM [quencher] |  |
| Cc1nnc(SCC(=O)N2N=C(c3ccc(Cl)cc3)CC2c2ccco2)[nH]c1=O (stereo not drawn) |  | inactive: 0.738% |
| Cc1ccc(S(=O)(=O)N2CCC(=O)N(C(COC(=O)Nc3ccccc3)Cc3ccccc3)CC2)cc1 (stereo not drawn) | inconclusive [falling, full curve, poor fit] |  |
| COc1cccc(-c2cn3c(n2)sc2cc(C(=O)NC4CCCCC4)ccc23)c1 | inconclusive [quencher, full curve] |  |

| Structure (SMILES) | Potency | fluorescence change, negative = quenching |
| --- | --- | --- |
| Cc1nn2c(COc3ccc(NC(=O)C(C)C)cc3)nnc2c2ccccc12 |  | inactive: -0.208% |
| O=C(NCCO)Nc1ccc2nc(-c3ccco3)c(-c3ccco3)nc2c1 |  | inactive: -4.83% |
| COC(=O)c1c(NC(=O)Cc2coc3cc(C)cc(C)c23)sc2c1CCC2 | inconclusive [falling, partial curve, poor fit] |  |
| CCC(Sc1nnc2c3ccccc3n(CC)c2n1)C(=O)Nc1ccc(NC(C)=O)cc1 (stereo not drawn) | inconclusive [falling, partial curve, poor fit] |  |
| O=C(CSc1nc2ccccc2s1)Nc1cc(S(=O)(=O)N2CCOCC2)ccc1O | inconclusive [falling, full curve, poor fit] |  |
| CCn1c(SCC(=O)Nc2ccc(C)cc2)nc2nc3c(cc2c1=O)COC(C)(C)C3 |  | inactive: 1.6% |
| CC(C)C(=O)NCCc1c[nH]c2ccccc12 |  | inactive: -2.7% |
| CC(C)C(C)NC(=O)CSc1nc2scc(-c3ccco3)c2c(=O)n1-c1ccccc1 (stereo not drawn) |  | inactive: 6.87% |
| Cc1cc(C)nc(NS(=O)(=O)c2ccc(NC(=O)c3cccs3)cc2)n1 |  | inactive: -1.43% |
| CCCC(=O)Nc1ccc2c(c1)nc(CN1CCN(C(=O)OCC)CC1)n2C(C)C | active: 100 µM [quencher] |  |
| CCC1CN(C(=O)NCc2cccc(OC)c2)c2cc(Cl)ccc2O1 (stereo not drawn) | inconclusive [quencher, partial curve] |  |
| CCCOc1ccc(/C=C/C(=O)Nc2sc(C)c(C)c2C(=O)OCC)cc1OC | inconclusive [quencher, full curve] |  |
| Cc1cc(C)cc(Nc2ncnc3c2nc2n3CCCC2)c1 | inconclusive [quencher, full curve] |  |
| CCOc1cc(CNS(=O)(=O)c2ccc3c(c2)CC(=O)N3C)cc(OCC)c1OCC | active: 17.8 µM [quencher] |  |
| CCCOc1ccccc1-c1nc(SCC(=O)c2ccccc2)n[nH]1 | inconclusive [quencher, full curve] |  |
| Cn1c(C(C#N)C2=C(Cl)C(=O)N(c3ccccc3)C2=O)nc2ccccc21 (stereo not drawn) | inconclusive [fluorescent, partial curve] |  |
| Cc1c2c(c(O)c3c(O)cccc13)C(=O)O[C@H]2C1C(N(C)C)C(O)=C(C(N)=O)C(=O)[C@H]1O (stereo partly drawn) | active: 22.4 µM [quencher] |  |
| O=C(CSc1nnc(Nc2ccccc2)s1)Nc1cccc(S(=O)(=O)N2CCCCC2)c1 | inconclusive [falling, full curve, poor fit] |  |
| O=S(=O)(/N=C/c1c(O)ccc2ccccc12)c1cccs1 | inconclusive [falling, full curve, poor fit] |  |
| CN(C)S(=O)(=O)c1cccc(NC(=S)N/N=C/c2cccc(O)c2)c1 |  | inactive: -0.02% |
| COC(=O)c1cc2oc3ccccc3c2n1Cc1nc(-c2ccccc2Cl)oc1C | inconclusive [falling, full curve, poor fit] |  |
